# The supplement of paper PMC8728848
# This is one part of the list.
# B1: RVL (Remusatia vivipara), B5LYJ9 (protein)
# chain: MAKLLLFLLPAILGLLVPRSAVALGTNYLLSGQTLDTEGHLKNGDFDLVMQDDCNLVLYNGNWQSNTANNGRDCKLTLTDYGELVIKNGDGSTVWKSGAQSVKGNYAAVVHPDGRLVVLGPSVFKIDPWVRGLNSLRFRNIPFTNNLLFSGQVLYGDGRLTAKNHQLVMQGDCNLVLYGGKYGWQSNTHGNGEHCFLRLNHKGELIIKDDDFKTIWSSRSSSKQGEYVLILQDDGFGVIYGPAIFETSSKRSIAAS
# What was measured:
# Experiment in all cases: glycan array binding signal (z-score within array); higher = stronger binding
# Conditions in all cases: glycan notation: IUPAC condensed, linker removed
# [1] = target: Gal(b1-4)GlcNAc(b1-3)[Gal(b1-4)GlcNAc(b1-6)]GalNAc
# Method in brief: (§1)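 Negative Z-scores can be read as non-binding. The Z-score is calculated within each array and then averaged across arrays of one protein sequence at different concentrations or buffers and across linkers. Arrays, 3228 in all, were curated from the Consortium for Functional Glycomics database and kept only where the protein sequence was available.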
# [2] = target: Gal(b1-4)GlcNAc(b1-3)[GlcNAc(b1-6)]Gal(b1-4)GlcNAc
# Method in brief: as §1
# [3] = target: Gal(b1-4)GlcNAc(b1-6)Gal(b1-4)GlcNAc
# Method in brief: as §1
# [4] = target: Gal(b1-4)GlcNAc(b1-6)GalNAc
# Method in brief: as §1
# [5] = target: Gal(b1-4)GlcNAc(b1-6)[Gal(b1-3)]GalNAc
# Method in brief: as §1
# Gal(b1-4)GlcNAc6P = target: Gal(b1-4)GlcNAc6P
# Method in brief: as §1
# Gal(b1-6)Gal = target: Gal(b1-6)Gal
# Method in brief: as §1
# Gal3S(b1-3)GalNAc = target: Gal3S(b1-3)GalNAc
# Method in brief: as §1
# Gal3S(b1-3)GlcNAc = target: Gal3S(b1-3)GlcNAc
# Method in brief: as §1
# [6] = target: Gal3S(b1-3)[Fuc(a1-4)]GlcNAc
# Method in brief: as §1
# Gal3S(b1-4)Glc = target: Gal3S(b1-4)Glc
# Method in brief: as §1
# Gal3S(b1-4)Glc6S = target: Gal3S(b1-4)Glc6S
# Method in brief: as §1
# Gal3S(b1-4)GlcNAc = target: Gal3S(b1-4)GlcNAc
# Method in brief: as §1
# Gal3S(b1-4)GlcNAc6S = target: Gal3S(b1-4)GlcNAc6S
# Method in brief: as §1
# [7] = target: Gal3S(b1-4)[Fuc(a1-3)]Glc
# Method in brief: as §1
# [8] = target: Gal3S(b1-4)[Fuc(a1-3)]Glc6S
# Method in brief: as §1
# Gal3S4S(b1-4)GlcNAc = target: Gal3S4S(b1-4)GlcNAc
# Method in brief: as §1
# Gal3S6S(b1-4)GlcNAc = target: Gal3S6S(b1-4)GlcNAc
# Method in brief: as §1
# Gal3S6S(b1-4)GlcNAc6S = target: Gal3S6S(b1-4)GlcNAc6S
# Method in brief: as §1
# Gal4S(b1-4)GlcNAc = target: Gal4S(b1-4)GlcNAc
# Method in brief: as §1
# Gal4S6S(b1-4)GlcNAc = target: Gal4S6S(b1-4)GlcNAc
# Method in brief: as §1
# Gal6P(b1-4)GlcNAc = target: Gal6P(b1-4)GlcNAc
# Method in brief: as §1
# Gal6S(b1-3)GlcNAc = target: Gal6S(b1-3)GlcNAc
# Method in brief: as §1
# Gal6S(b1-3)GlcNAc6S = target: Gal6S(b1-3)GlcNAc6S
# Method in brief: as §1
# Gal6S(b1-4)Glc = target: Gal6S(b1-4)Glc
# Method in brief: as §1
# Gal6S(b1-4)Glc6S = target: Gal6S(b1-4)Glc6S
# Method in brief: as §1
# Gal6S(b1-4)GlcNAc = target: Gal6S(b1-4)GlcNAc
# Method in brief: as §1
# Gal6S(b1-4)GlcNAc6S = target: Gal6S(b1-4)GlcNAc6S
# Method in brief: as §1
# GalNAc(a1-3)Gal = target: GalNAc(a1-3)Gal
# Method in brief: as §1
# GalNAc(a1-3)GalNAc = target: GalNAc(a1-3)GalNAc
# Method in brief: as §1
# [9] = target: GalNAc(a1-3)GalNAc(a1-3)Gal(a1-4)Gal(b1-4)GlcNAc
# Method in brief: as §1
# [10] = target: GalNAc(a1-3)GalNAc(b1-3)Gal(a1-4)Gal(b1-4)Glc
# Method in brief: as §1
# [11] = target: GalNAc(a1-3)GalNAc(b1-3)Gal(a1-4)Gal(b1-4)GlcNAc
# Method in brief: as §1
# GalNAc(b1-3)Gal = target: GalNAc(b1-3)Gal
# Method in brief: as §1
# [12] = target: GalNAc(b1-3)Gal(a1-4)Gal(b1-4)GlcNAc
# Method in brief: as §1
# [13] = target: GalNAc(b1-3)Gal(a1-4)Gal(b1-4)GlcNAc(b1-3)Gal(b1-4)Glc
# Method in brief: as §1
# [14] = target: GalNAc(b1-3)Gal(a1-6)Gal(b1-4)Glc
# Method in brief: as §1
# GalNAc(b1-3)GalNAc = target: GalNAc(b1-3)GalNAc
# Method in brief: as §1
# GalNAc(b1-4)Gal(b1-4)Glc = target: GalNAc(b1-4)Gal(b1-4)Glc
# Method in brief: as §1
# GalNAc(b1-4)GlcNAc = target: GalNAc(b1-4)GlcNAc
# Method in brief: as §1
# [15] = target: GalNAc(b1-4)GlcNAc(b1-2)Man(a1-3)[GalNAc(b1-4)GlcNAc(b1-2)Man(a1-6)]Man(b1-4)GlcNAc(b1-4)GlcNAc
# Method in brief: as §1
# GalNAc(b1-4)GlcNAc6S = target: GalNAc(b1-4)GlcNAc6S
# Method in brief: as §1
# GalNAc(b1-6)GalNAc = target: GalNAc(b1-6)GalNAc
# Method in brief: as §1
# GalNAc3S(b1-4)GlcNAc = target: GalNAc3S(b1-4)GlcNAc
# Method in brief: as §1
# GalNAc3S(b1-4)GlcNAc3S = target: GalNAc3S(b1-4)GlcNAc3S
# Method in brief: as §1
binder,measurement,setting,value
B1,glycan array binding signal (z-score),[1],-0.01
same,glycan array binding signal (z-score),[2],-0.23
same,glycan array binding signal (z-score),[3],-0.216
same,glycan array binding signal (z-score),[4],-0.113
same,glycan array binding signal (z-score),[5],-0.232
same,glycan array binding signal (z-score),Gal(b1-4)GlcNAc6P,-0.449
same,glycan array binding signal (z-score),Gal(b1-6)Gal,-0.205
same,glycan array binding signal (z-score),Gal3S(b1-3)GalNAc,-0.196
same,glycan array binding signal (z-score),Gal3S(b1-3)GlcNAc,0.096
same,glycan array binding signal (z-score),[6],-0.004
same,glycan array binding signal (z-score),Gal3S(b1-4)Glc,-0.105
same,glycan array binding signal (z-score),Gal3S(b1-4)Glc6S,-0.27
same,glycan array binding signal (z-score),Gal3S(b1-4)GlcNAc,-0.113
same,glycan array binding signal (z-score),Gal3S(b1-4)GlcNAc6S,-0.119
same,glycan array binding signal (z-score),[7],-0.181
same,glycan array binding signal (z-score),[8],-0.239
same,glycan array binding signal (z-score),Gal3S4S(b1-4)GlcNAc,-0.017
same,glycan array binding signal (z-score),Gal3S6S(b1-4)GlcNAc,-0.163
same,glycan array binding signal (z-score),Gal3S6S(b1-4)GlcNAc6S,-0.316
same,glycan array binding signal (z-score),Gal4S(b1-4)GlcNAc,-0.249
same,glycan array binding signal (z-score),Gal4S6S(b1-4)GlcNAc,-0.177
same,glycan array binding signal (z-score),Gal6P(b1-4)GlcNAc,-0.218
same,glycan array binding signal (z-score),Gal6S(b1-3)GlcNAc,-0.046
same,glycan array binding signal (z-score),Gal6S(b1-3)GlcNAc6S,0.134
same,glycan array binding signal (z-score),Gal6S(b1-4)Glc,-0.118
same,glycan array binding signal (z-score),Gal6S(b1-4)Glc6S,-0.102
same,glycan array binding signal (z-score),Gal6S(b1-4)GlcNAc,-0.03
same,glycan array binding signal (z-score),Gal6S(b1-4)GlcNAc6S,0.058
same,glycan array binding signal (z-score),GalNAc(a1-3)Gal,-0.205
same,glycan array binding signal (z-score),GalNAc(a1-3)GalNAc,-0.132
same,glycan array binding signal (z-score),[9],-0.126
same,glycan array binding signal (z-score),[10],-0.233
same,glycan array binding signal (z-score),[11],-0.305
same,glycan array binding signal (z-score),GalNAc(b1-3)Gal,-0.075
same,glycan array binding signal (z-score),[12],-0.084
same,glycan array binding signal (z-score),[13],-0.066
same,glycan array binding signal (z-score),[14],-0.17
same,glycan array binding signal (z-score),GalNAc(b1-3)GalNAc,-0.338
same,glycan array binding signal (z-score),GalNAc(b1-4)Gal(b1-4)Glc,0.013
same,glycan array binding signal (z-score),GalNAc(b1-4)GlcNAc,-0.219
same,glycan array binding signal (z-score),[15],-0.371
same,glycan array binding signal (z-score),GalNAc(b1-4)GlcNAc6S,-0.19
same,glycan array binding signal (z-score),GalNAc(b1-6)GalNAc,-0.006
same,glycan array binding signal (z-score),GalNAc3S(b1-4)GlcNAc,-0.139
same,glycan array binding signal (z-score),GalNAc3S(b1-4)GlcNAc3S,0.264
